Results reported in a collection of fitness landscapes (doi:10.1126/science.1257360).
The list shows a part of the results.

B1: PhoQ; a variant is named by its letters at X, in order, P23837 (parent)
chain: MKKLLRLFFPLSLRVRFLLATAAVVLVLSLAYGMVALIGYSVSFDKTTFRLLRGESNLFYTLAKWENNKLHVELPENIDKQSPTMTLIYDENGQLLWAQRDVPWLMKMIQPDWLKSNGFHEIEADVNDTSLLLSGDHSIQQQLQEVREDDDDAEMTHSVAVNVYPATSRMPKLTIVVVDTIPVELKSSYMVWSWFIYVLSANLLLVIPLLWVAAWWSLRPIEALAKEVRELEEHNRELLNPATTRELTSLVRNLNRLLKSERERYDKYRTTLTDLTHSLKTPLXXLQXXLRSLRSEKMSVSDAEPVMLEQISRISQQIGYYLHRASMRGGTLLSRELHPVAPLLDNLTSALNKVYQRKGVNISLDISPEISFVGEQNDFVEVMGNVLDNACKYCLEFVEISARQTDEHLYIVVEDDGPGIPLSKREVIFDRGQRVDTLRPGQGVGLAVAREITEQYEGKIVAGESMLGGARMEVIFGRQHSAPKDE

Variants of: B1
Experiment: enrichment ratio after two sorts for PhoP signalling (ratio (wild type AVST 3.29)); higher = more functional
Settings: with PhoP (E. coli)

Variant	enrichment ratio
TSMW	≤ 0.25
DTPA	≤ 0.25
GAVP	≤ 0.25
PWWS	≤ 0.25
MLDQ	≤ 0.25
TDTR	≤ 0.25
IRFP	≤ 0.25
VIPS	≤ 0.25
KRMF	≤ 0.25
KFHK	≤ 0.25
DMFV	≤ 0.25
SHNY	8.62
DQWH	≤ 0.25
TMYK	≤ 0.25
VCLD	≤ 0.25
NERS	≤ 0.25
DLPA	≤ 0.25
RWLN	≤ 0.25
MKLW	≤ 0.25
DYCW	≤ 0.25
NFGK	≤ 0.25
RLWL	0.608
RDKD	≤ 0.25
FWVR	≤ 0.25

Variant	enrichment ratio
IKFW	≤ 0.25
MHDS	≤ 0.25
DHTS	≤ 0.25
IYMA	≤ 0.25
ITLY	≤ 0.25
SKAG	≤ 0.25
VGFT	≤ 0.25
YILV	2.75
SYEE	≤ 0.25
TYRS	≤ 0.25
MSVH	1.92
HSVD	≤ 0.25
EAAE	≤ 0.25
FENM	≤ 0.25
TSMK	5.55
GVAV	≤ 0.25
KASL	≤ 0.25
ISPY	≤ 0.25
QHLF	≤ 0.25
RNNT	≤ 0.25
RKYR	≤ 0.25
FMTC	≤ 0.25
LECL	≤ 0.25
KGLW	≤ 0.25

Variant	enrichment ratio
LFTL	≤ 0.25
WIPQ	≤ 0.25
SFTI	≤ 0.25
RVDE	≤ 0.25
AKDN	≤ 0.25
DNPF	≤ 0.25
YYLS	≤ 0.25
RWTM	≤ 0.25
RNVP	≤ 0.25
LCCL	≤ 0.25
FNYP	≤ 0.25
ALTS	4.58
FHQP	≤ 0.25
VYNK	≤ 0.25
QIVQ	≤ 0.25
QFSG	2.84
YNHS	≤ 0.25
IYAL	≤ 0.25
WRKH	≤ 0.25
EKMP	≤ 0.25
TIMT	5.04
YDRF	≤ 0.25
NDRN	≤ 0.25
FLTK	≤ 0.25

Variant	enrichment ratio
IFVE	≤ 0.25
SGQQ	2.62
NEEV	≤ 0.25
SSCY	9.57
GDIS	≤ 0.25
FHLN	≤ 0.25
IAGQ	≤ 0.25
SCLE	0.563
QLMG	≤ 0.25
FDMA	≤ 0.25
IQNN	≤ 0.25
QLDA	≤ 0.25
ERIE	≤ 0.25
VSWI	1.37
LKGK	≤ 0.25
MRMI	≤ 0.25
YCMW	≤ 0.25
IHWN	≤ 0.25
YNTV	≤ 0.25
KRWQ	≤ 0.25
KLYD	≤ 0.25
KWSY	≤ 0.25
VVRS	≤ 0.25
ATIT	4.62

Variant	enrichment ratio
LGAQ	≤ 0.25
EVYP	≤ 0.25
RSKY	≤ 0.25
KGCL	≤ 0.25
QTRL	≤ 0.25
THIC	≤ 0.25
RHYL	≤ 0.25
QYWK	≤ 0.25
YQYH	≤ 0.25
IWWD	≤ 0.25
YPWG	≤ 0.25
SLWV	≤ 0.25
DANK	≤ 0.25
WIIP	≤ 0.25
CRSS	≤ 0.25
NFCC	≤ 0.25
FHFS	≤ 0.25
RVAC	≤ 0.25
PDVP	≤ 0.25
TRVQ	≤ 0.25
PLFM	≤ 0.25
ESWF	≤ 0.25
DLIM	≤ 0.25
MFRQ	≤ 0.25

Variant	enrichment ratio
DFFW	≤ 0.25
EQAN	≤ 0.25
MGKD	≤ 0.25
PFSH	≤ 0.25
MLYW	≤ 0.25
KQWA	≤ 0.25
FIFP	≤ 0.25
LNPF	≤ 0.25
MQAW	≤ 0.25
WNTS	≤ 0.25
FNGK	≤ 0.25
WGTM	≤ 0.25
PPVY	≤ 0.25
IVQF	≤ 0.25
FTNM	≤ 0.25
IQHE	≤ 0.25
GYGD	≤ 0.25
ISQT	≤ 0.25
TDVE	≤ 0.25
MSPM	≤ 0.25
TVFE	≤ 0.25
HANK	≤ 0.25
DYMK	≤ 0.25
GTVH	≤ 0.25

Variant	enrichment ratio
KQQY	≤ 0.25
GEND	≤ 0.25
LHCC	≤ 0.25
FLDH	≤ 0.25
VHFL	≤ 0.25
SKRV	≤ 0.25
NVVN	≤ 0.25
ATKK	≤ 0.25
EIHI	≤ 0.25
DERQ	≤ 0.25
HNNV	≤ 0.25
VEEL	≤ 0.25
GKFE	≤ 0.25
MWSH	≤ 0.25
QNNF	≤ 0.25
DAGY	≤ 0.25
RLIT	≤ 0.25
NGSL	≤ 0.25
QFSC	≤ 0.25
LEEC	≤ 0.25
PLSV	≤ 0.25
VKGA	≤ 0.25
MTPH	≤ 0.25
RTFW	≤ 0.25

Variant	enrichment ratio
SHST	≤ 0.25
IDNW	≤ 0.25
LMHL	≤ 0.25
LPKK	≤ 0.25
GTGP	≤ 0.25
ICKK	≤ 0.25
VGLM	6.74
LNET	≤ 0.25
SRPE	0.776
QRFR	≤ 0.25
THIA	≤ 0.25
SCES	≤ 0.25
HLHH	≤ 0.25
IDNE	≤ 0.25
LWIE	≤ 0.25
APHD	≤ 0.25
WADM	≤ 0.25
RNCL	≤ 0.25
TNYD	≤ 0.25
PVSY	≤ 0.25
QIRL	≤ 0.25
DWDA	≤ 0.25
HASH	≤ 0.25
IVFA	≤ 0.25

Variant	enrichment ratio
FTQH	≤ 0.25
LYTG	≤ 0.25
EYFW	≤ 0.25
SFMY	≤ 0.25
HMPQ	≤ 0.25
PNHD	≤ 0.25
RWGF	≤ 0.25
DLES	≤ 0.25
LLCD	≤ 0.25
EKSH	≤ 0.25
EEHI	≤ 0.25
PEGY	≤ 0.25
DNSC	≤ 0.25
TAQN	≤ 0.25
APYN	≤ 0.25
GWMT	≤ 0.25
KKYA	≤ 0.25
QQGY	≤ 0.25
NIEG	≤ 0.25
IARD	≤ 0.25
PRII	≤ 0.25
WGLS	≤ 0.25
DDFL	≤ 0.25
WKIM	≤ 0.25

Variant	enrichment ratio
LYDY	≤ 0.25
VLWS	≤ 0.25
SWRP	≤ 0.25
YMWT	≤ 0.25
TNWR	≤ 0.25
VHMA	≤ 0.25
TFPP	≤ 0.25
DPGC	≤ 0.25
SQDG	≤ 0.25
ESYM	≤ 0.25
LVVD	≤ 0.25
LLRA	≤ 0.25
MTNP	≤ 0.25
FTAT	≤ 0.25
NQQC	≤ 0.25
RHSY	≤ 0.25
YRHF	≤ 0.25
LKLR	≤ 0.25
GWWT	≤ 0.25
LDCQ	≤ 0.25
RMGI	≤ 0.25
ICCI	≤ 0.25
PSSY	≤ 0.25
FQLI	5.52

Variant	enrichment ratio
AMSP	≤ 0.25
INRR	≤ 0.25
QIEK	≤ 0.25
YKFV	≤ 0.25
RVEF	≤ 0.25
WRKE	≤ 0.25
QLPW	≤ 0.25
YDHH	≤ 0.25
TPWR	≤ 0.25
FWMV	≤ 0.25
IVCY	1.11
VFLT	≤ 0.25
NQIE	≤ 0.25
MVAA	≤ 0.25
TTGW	≤ 0.25
PGMS	≤ 0.25
KCWK	≤ 0.25
MGDP	≤ 0.25
RHGE	≤ 0.25
TFNA	2.84
FPLQ	≤ 0.25
LPWY	≤ 0.25
VTKS	≤ 0.25
DTVH	≤ 0.25

Variant	enrichment ratio
TFWS	≤ 0.25
IMYK	≤ 0.25
VHSS	≤ 0.25
GHVD	≤ 0.25
WKCI	≤ 0.25
RGCM	≤ 0.25
PANH	≤ 0.25
EQGT	≤ 0.25
LIQH	≤ 0.25
KEPD	≤ 0.25
YDAY	≤ 0.25
ANHA	≤ 0.25
NQRT	≤ 0.25
GYMW	≤ 0.25
INIE	≤ 0.25
RQHN	≤ 0.25
DHLF	≤ 0.25
QHWS	≤ 0.25
THGI	1.93
ERAR	≤ 0.25
GQII	≤ 0.25
NVAT	≤ 0.25
SPKR	≤ 0.25
NHLM	≤ 0.25

Variant	enrichment ratio
ENPC	≤ 0.25
VFGT	≤ 0.25
MCCA	≤ 0.25
VMSQ	≤ 0.25
KTCK	≤ 0.25
AKES	≤ 0.25
WVHK	≤ 0.25
KFQW	≤ 0.25
DSSL	≤ 0.25
RSRG	≤ 0.25
WGKQ	≤ 0.25
GCNK	≤ 0.25
KSKF	≤ 0.25
MSCS	0.763
EKAP	≤ 0.25
NQLC	≤ 0.25
TDPG	≤ 0.25
HGTN	≤ 0.25
